Results published in patent US10941208B2, “Anti-MUC16 antibodies” (Regeneron Pharmaceuticals, Inc., priority 2016, dated 2021).

Experiments:
OVCAR-3/Luc = experiment: OVCAR-3 model study 2 (xenogenic, BLI); format: in vivo, mouse (NSG); conditions: for Avg Radiance 4 days post-implantation (median ± SEM): Day 4, before dosing started (baseline)
Description: In further experiments, the in vivo efficacy of an anti-MUC16/anti-CD3 bispecific antibody was evaluated in xenogenic and syngeneic tumor models. For the first xenogenic model, NSG mice were injected intraperitoneally (IP) with OVCAR-3/Luc cells previously passaged in vivo (Day 0) eleven days after engraftment with human PBMCs. Mice were treated IP with 0.01, 0.1, or 0.5 mg/kg BSMUC16/CD3-001, or administered 0.5 mg/kg non-binding control or CD3-binding control on Days 6, 10, 13, 16, and 21. Tumor burden was assessed by BLI on Days 6, 14, and 20 post tumor implantation. […] For the second xenogenic model, NSG mice were injected with OVCAR-3/Luc cells previously passaged in vivo (Day 0) thirteen days after engraftment with human PBMCs and a second batch of PBMCs were transferred on Day 4. Mice were treated intravenously (IV) with 0.1, 0.5, 1, or 5 mg/kg BSMUC16/CD3-005 or administered 5 mg/kg non-binding control or CD3-binding control on Days 5, 8, 12, 15, 19 and 22. Tumor burden was assessed by BLI on Days 4, 11, 18 and 25. […] To examine efficacy in an immune-competent model, the murine CD3 gene was replaced with human CD3 and a portion of the mouse MUC16 gene was replaced with the human sequence. […] For the syngeneic tumor model, ID8-VEGF cell lines engineered to express the portion of human MUC16 were used. Mice were implanted with the ID8-VEGF/huMUC16 cells subcutaneously and treated with 100 μg of BSMUC16/CD3-001 either on day of implantation or ten days after implantation when tumors were established.
Ascites cells from the OVCAR-3/Luc cell line, previously passaged in vivo, were administered IP into the NSG mice previously engrafted with human PBMCs. BLI was measured as a read-out for tumor growth several days after OVCAR-3/Luc implantation and at multiple times during study. After initial BLI measurement for cohorting, mice were divided into groups of 4-6 animals each and administered MUC16×CD3 bispecific or control antibodies twice per week throughout the study.
Bioluminescence imaging was used to measure tumor burden. Mice were injected IP with 150 mg/kg (as determined by body weights at the start of the experiment) of the luciferase substrate D-luciferin suspended in PBS. Ten minutes after dosing, BLI imaging of the mice was performed under isoflurane anesthesia using the Xenogen IVIS system. Image acquisition was carried out with the field of view at D, subject height of 1.5 cm, and medium binning level for 0.5-min exposure time. BLI signals were extracted using Living Image software. Regions of interest were drawn around each tumor mass and photon intensities were recorded as p/s/cm^2/sr. Statistical analysis was performed using GraphPad Prism software (Version 6). Statistical significance for the BLI results was determined using an unpaired nonparametric Mann-Whitney t-test. Fold changes were calculated by the formula: (Day 20-Day 6)/Day 6 for study 1 and (Day 25-Day 4)/Day 4 for study 2.

[1] = Pharmacokinetics in humanized MUC16×CD3 mice (MUC16^hu/hu×CD3^hu/hu); format: in vivo, mouse
[2] = target: T1, soluble monomeric human MUC16 (hMUC16.mmh, last five SEA domains, SEQ ID: 1902) (Homo sapiens, UniProt Q8WXI7); experiment: Surface plasmon resonance (BIACORE) binding to hMUC16 fragment at 25° C.; conditions: anti-MUC16/anti-CD3 bispecific antibodies, Table 6
T1 construct: mmh (myc-myc-hexahistidine)

[3] = target: T2, Jurkat cells (human CD3-expressing) (Homo sapiens, UniProt P04234+P07766); experiment: FACS binding titration on Jurkat cells; conditions: Table 7B experiment
T2 construct: endogenous in cells; host or cells: Jurkat
Description: A. Briefly, flow cytometric analysis (i.e. fluorescence-activated cell sorting, or FACS) was utilized to determine binding of bispecific antibodies to Jurkat cells or cells expressing human MUC16, followed by detection with a phycoerythrin (PE)-labeled or APC-labeled anti-human IgG antibody. Briefly, 2×10^5 cells/well were incubated for 30 minutes at 4° C. with a serial dilution ranging from 1.33E-07M to 8.03E-12M of each test antibody or isotype control (antibody of same isotype that binds a different antigen with no cross-reactivity to MUC16 or CD3). After incubation, the cells were washed twice with cold PBS containing 1% filtered FBS and a PE-conjugated or APC-conjugated anti-human secondary antibody was added to the cells and incubated for an additional 30 minutes. Wells containing no antibody or secondary only were also used as controls. After incubation, cells were washed, re-suspended in 200 μL cold PBS containing 1% filtered FBS and analyzed by flow cytometry on a BD FACS Canto II.
B. In separate experiments with analogous conditions to that described above, flow cytometric analysis (or FACS) was utilized to determine binding of select bispecific antibodies to Jurkat cells, PEO-1, OVCAR3-Luc and cynomolgus T cells. For the titration analysis, serial dilution of selected MUC16×CD3 bispecific antibodies, a first isotype control antibody (a human chimeric IgG4 antibody that binds an irrelevant human antigen with no cross-reactivity to human or cynomolgus CD3) and a second isotype control antibody (a human chimeric IgG4 antibody that binds an irrelevant human antigen with no cross-reactivity to human MUC16), ranging from 66.6 nM to 0.001 nM.
For FACS analysis, cells were gated by forward scatter height vs. forward scatter area for single events selection, followed by side and forward scatters. The EC50 for cell binding titration was determined using PRISM™ software (GraphPad Software, Inc., La Jolla, Calif.). Values were calculated using 4-parameter non-linear regression analysis. (Liu, J., et al. 2005, Biotechnol Letters 27:1821-1827).

mouse MUC16 = experiment: Binding to mouse MUC16
[4] = MUC16^hu/hu × CD3^hu/hu mice, single 0.4 mg/kg i.p.

T1 sequence (Q8WXI7 with tags, fused parts or gaps): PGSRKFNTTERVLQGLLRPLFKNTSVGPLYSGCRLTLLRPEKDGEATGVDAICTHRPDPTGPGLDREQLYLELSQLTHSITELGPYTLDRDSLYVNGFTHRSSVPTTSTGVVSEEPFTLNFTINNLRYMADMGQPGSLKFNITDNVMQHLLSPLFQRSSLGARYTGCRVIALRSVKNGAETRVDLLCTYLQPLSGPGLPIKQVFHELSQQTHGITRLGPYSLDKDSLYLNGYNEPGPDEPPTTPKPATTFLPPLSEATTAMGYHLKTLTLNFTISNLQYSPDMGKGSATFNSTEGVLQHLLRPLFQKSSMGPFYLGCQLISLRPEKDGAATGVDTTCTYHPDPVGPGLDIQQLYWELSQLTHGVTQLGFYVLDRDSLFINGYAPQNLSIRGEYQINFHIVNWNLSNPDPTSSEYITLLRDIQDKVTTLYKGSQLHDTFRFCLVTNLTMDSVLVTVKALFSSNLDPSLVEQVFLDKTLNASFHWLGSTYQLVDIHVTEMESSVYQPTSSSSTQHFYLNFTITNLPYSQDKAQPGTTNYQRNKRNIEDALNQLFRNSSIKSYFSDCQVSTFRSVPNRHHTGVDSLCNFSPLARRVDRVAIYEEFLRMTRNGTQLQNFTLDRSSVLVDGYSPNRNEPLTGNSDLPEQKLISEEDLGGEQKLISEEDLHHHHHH
T2 sequence (P07766 23-207): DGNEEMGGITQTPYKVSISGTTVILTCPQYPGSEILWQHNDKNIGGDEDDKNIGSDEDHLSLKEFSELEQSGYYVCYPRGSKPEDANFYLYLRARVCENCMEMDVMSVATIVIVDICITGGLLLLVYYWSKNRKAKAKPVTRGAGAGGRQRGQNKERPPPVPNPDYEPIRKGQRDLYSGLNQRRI
T2 sequence (P04234 22-171): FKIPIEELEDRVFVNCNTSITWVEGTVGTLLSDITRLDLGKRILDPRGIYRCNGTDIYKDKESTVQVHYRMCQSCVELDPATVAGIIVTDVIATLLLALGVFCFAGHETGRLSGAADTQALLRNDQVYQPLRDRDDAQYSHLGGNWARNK
T2 sequence (P09693 23-182 partner): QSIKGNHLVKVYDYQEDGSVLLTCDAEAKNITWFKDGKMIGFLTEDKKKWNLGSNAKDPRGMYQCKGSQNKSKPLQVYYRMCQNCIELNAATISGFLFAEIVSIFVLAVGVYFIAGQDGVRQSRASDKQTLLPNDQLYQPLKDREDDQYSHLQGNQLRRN
T2 sequence (P20963 22-164 partner): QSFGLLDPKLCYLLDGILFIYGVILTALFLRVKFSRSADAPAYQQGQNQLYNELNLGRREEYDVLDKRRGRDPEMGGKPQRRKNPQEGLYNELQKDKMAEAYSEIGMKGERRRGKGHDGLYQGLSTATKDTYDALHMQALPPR

B1: BSMUC16/CD3-005: anti-MUC16×CD3 bispecific, modified (chimeric) IgG4 Fc; H1H8767P HCVR (SEQ 18), CD3-VH-G20 (SEQ 1866), common LCVR SEQ 26 (antibody, V domains shown)
VH 1: QVQLVESGGGLVKPGGSLRLSCAASGFTFSNYYMSWVRQAPGKGLEWISYISGRGSTIFYADSVKGRITISRDNAKNSLFLQMNSLRAEDTAVYFCVKDRGGYSPYWGQGTLVTVSS
VH 2: EVQLVESGGGLVQPGRSLRLSCAASGFTFDDYSMHWVRQAPGKGLEWVSGISWNSGSIGYADSVKGRFTISRDNAKNSLYLQMNSLRAEDTALYYCAKYGSGYGKFYYYGMDVWGQGTTVTVSS
VL: [… about 100 residues …]PITFGQGTRLEIK
- Fold change in Avg Radiance [p/s/cm2^2/sr] from Day 4 to D 25 post-implantation (mean ± SD) (OVCAR-3/Luc; 0.1 mg/kg IV, (Day 25-Day 4)/Day 4): 45.4 ± 35.7 fold
- Avg Radiance 4 days post-implantation (median ± SEM) (OVCAR-3/Luc; 0.1 mg/kg group): 1.53e+05 ± 1.93e+04 p/s/cm2^2/sr
- Avg Radiance 4 days post-implantation (median ± SEM) (OVCAR-3/Luc; 0.5 mg/kg group): 1.31e+05 ± 4.03e+03 p/s/cm2^2/sr
- Avg Radiance 4 days post-implantation (median ± SEM) (OVCAR-3/Luc; 1 mg/kg group): 1.38e+05 ± 4.65e+03 p/s/cm2^2/sr
- Avg Radiance 4 days post-implantation (median ± SEM) (OVCAR-3/Luc; 5 mg/kg group): 1.54e+05 ± 1.03e+04 p/s/cm2^2/sr
- AUClast [1, 4]: 34 µg·days/mL
- Cmax (Peak concentration) [1, 4]: 4500 ng/mL
- T1/2 (Estimated half-life observed) [1, 4]: 197 h
- Total mAb Concentration In Mouse Serum, Mean ([1]; MUC16^hu/hu × CD3^hu/hu mice, single 0.4 mg/kg i.p., Time 0.13 d): 4.35 µg/mL
- Total mAb Concentration In Mouse Serum, Mean ([1]; MUC16^hu/hu × CD3^hu/hu mice, single 0.4 mg/kg i.p., Time 0.25 d): 4.45 µg/mL
- Total mAb Concentration In Mouse Serum, Mean ([1]; MUC16^hu/hu × CD3^hu/hu mice, single 0.4 mg/kg i.p., Time 1.00 d): 3.00 µg/mL
- Total mAb Concentration In Mouse Serum, Mean ([1]; MUC16^hu/hu × CD3^hu/hu mice, single 0.4 mg/kg i.p., Time 3.00 d): 1.98 µg/mL
- Total mAb Concentration In Mouse Serum, Mean ([1]; MUC16^hu/hu × CD3^hu/hu mice, single 0.4 mg/kg i.p., Time 7.00 d): 1.58 µg/mL
- Total mAb Concentration In Mouse Serum, Mean ([1]; MUC16^hu/hu × CD3^hu/hu mice, single 0.4 mg/kg i.p., Time 14.00 d): 0.78 µg/mL
- Total mAb Concentration In Mouse Serum, Mean ([1]; MUC16^hu/hu × CD3^hu/hu mice, single 0.4 mg/kg i.p., Time 21.00 d): 0.66 µg/mL
- Total mAb Concentration In Mouse Serum, Mean ([1]; MUC16^hu/hu × CD3^hu/hu mice, single 0.4 mg/kg i.p., Time 28.00 d): 0.30 µg/mL
- Terminal antibody concentration, fold less than the isotype control ([1]; MUC16^hu/hu×CD3^hu/hu double-humanized mice): ~2.9 fold
- ka [2]: 94100 M⁻¹ s⁻¹
- kd [2]: 0.000564 s⁻¹
- EC50 [3]: 62.6 nM
- binding to mouse MUC16 (mouse MUC16): Neither BSMUC16/CD3-001 or BSMUC16/CD3-005 bind mouse MUC16 or mouse CD3
